{"source": "PubChem BioAssay AID1030", "about": "(National Center for Advancing Translational Sciences (NCATS), 2008)", "note": "Among all 220,000 compounds or so, about 16,000 (7.3%) were called active. Inconclusive results, whose numbers are uncertain, are shown with a selection of clear calls. The call rests on the fitted dose curve; in most records, active means well fitted inhibition curve with a large enough effect (not every such curve was filed as active); inconclusive means small, poorly fitted or top-dose-only effect, or another doubt; inactive means no such curve, though single readings can be large or run the other way. No potency is given beside an inconclusive call; the fits are too rough. Potency means the concentration at half of the fitted maximal effect; tags describe the fitted curve by direction and shape."}
{"biological_target": "Aldehyde dehydrogenase 1A1 (Homo sapiens) (UniProt P00352)", "sequence (P00352 whole entry, looked up)": "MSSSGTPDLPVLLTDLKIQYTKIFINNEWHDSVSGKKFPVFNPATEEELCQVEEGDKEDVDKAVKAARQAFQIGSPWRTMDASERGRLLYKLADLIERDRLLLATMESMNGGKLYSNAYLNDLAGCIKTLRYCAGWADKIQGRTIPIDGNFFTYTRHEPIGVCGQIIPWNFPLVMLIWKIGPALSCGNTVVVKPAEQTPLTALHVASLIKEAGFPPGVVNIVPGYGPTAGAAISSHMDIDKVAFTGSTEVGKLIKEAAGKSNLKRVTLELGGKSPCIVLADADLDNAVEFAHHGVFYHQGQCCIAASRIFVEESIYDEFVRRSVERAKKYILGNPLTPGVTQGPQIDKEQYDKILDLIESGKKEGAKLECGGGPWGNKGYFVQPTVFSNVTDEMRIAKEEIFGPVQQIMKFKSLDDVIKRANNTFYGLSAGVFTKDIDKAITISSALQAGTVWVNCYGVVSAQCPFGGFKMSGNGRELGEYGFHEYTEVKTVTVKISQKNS", "test": "qHTS Assay for Inhibitors of Aldehyde Dehydrogenase 1 (ALDH1A1);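 on activity, negative = inhibition: plate controls were no enzyme wells and a reference inhibitor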", "settings": "Purified ALDH1A1, NADH fluorescence, propionaldehyde substrate; series mostly up to 75.3 µM; activity, negative = inhibition: at the top concentration"}
{"smiles": "CCC(C)NC(=O)CO/N=C/c1ccc(C(=O)OC)cc1", "note": "(configuration not stated)", "activity, negative = inhibition": "inactive: 3.76%"}
{"smiles": "CCOC(=O)c1cc2c(=O)n3ccccc3nc2n(CCCOC)c1=NC(=O)C(C)(C)C", "Potency": "inconclusive [inhibitor, partial curve]"}
{"smiles": "Cc1ccc(-c2nnc3ccc(SCC(=O)N4CCCc5ccccc54)nn23)cc1", "Potency": "inconclusive [inhibitor, single point]"}
{"smiles": "O=C(NCc1cccs1)c1ccc(S(=O)(=O)N2CCOCC2)cc1", "activity, negative = inhibition": "inactive: 6.35%"}
{"smiles": "S=c1[nH]nc(-c2ccc(Br)o2)n1Cc1ccccc1", "Potency": "active: 1.41 µM"}
{"smiles": "CN1C(=O)c2oc3ccccc3c(=O)c2C1c1ccccn1", "note": "(configuration not stated)", "Potency": "inconclusive [inhibitor, single point]"}
{"smiles": "CCN(CC)CCCn1c(=S)[nH]c2cc(OC)c(OC)cc2c1=O", "activity, negative = inhibition": "inactive: 17.3%"}
{"smiles": "CN(C)C(=O)c1ccc(-c2cc(NCc3ccccc3)ncn2)cc1", "Potency": "inconclusive [inhibitor, partial curve]"}
{"smiles": "CC(C)(C)c1cc(C(=O)O)nn1-c1ccccc1", "Potency": "inconclusive [inhibitor, single point]"}
{"smiles": "C/C(CC(=O)Nc1ccccc1C)=N\\NC(=O)Cc1csc(N)n1", "Potency": "inconclusive [inhibitor, single point]"}
{"smiles": "O=C(NCC1CCCO1)c1c(O)c2cccc3c2n(c1=O)CC3", "note": "(configuration not stated)", "Potency": "inconclusive [inhibitor, partial curve]"}
{"smiles": "CCOC(=O)C1CCN(C(=O)C(C)Sc2ccc(Cl)cc2)CC1", "note": "(configuration not stated)", "Potency": "inconclusive [inhibitor, single point]"}
{"smiles": "COc1cccc2c(=O)n(CC(=O)Nc3ccccc3F)ccc12", "Potency": "inconclusive [inhibitor, single point]"}
{"smiles": "N#Cc1cc2c(nc1SCc1cccc(Cl)c1)CCCCC2", "activity, negative = inhibition": "inactive: 0.038%"}
{"smiles": "Fc1ccc(C2c3[nH]c4ccccc4c3CCN2Cc2ccoc2)cc1", "note": "(configuration not stated)", "Potency": "inconclusive [inhibitor, single point]"}
{"smiles": "Cc1cccc(CCN(Cc2cc3cccc(C)c3[nH]c2=O)C(=O)N2CCOCC2)c1", "Potency": "inconclusive [inhibitor, partial curve]"}
{"smiles": "O=S(=O)(c1ccccc1)N1CCC2(CCN(c3ccccc3)CC2)CC1", "Potency": "inconclusive [inhibitor, single point]"}
{"smiles": "O=c1c2ccccc2ncn1CCOc1ccccc1[N+](=O)[O-]", "activity, negative = inhibition": "inactive: -2.87%"}
{"smiles": "CCN(CC)c1ccc(NC(=O)c2ccccc2OCC(=O)OC)cc1", "Potency": "inconclusive [inhibitor, single point]"}
{"smiles": "CCSC1=N/C(=C\\c2cccc(F)c2)C(=O)S1", "activity, negative = inhibition": "inactive: 7.17%"}
{"smiles": "COc1ccccc1CN1CCNC(=O)C1CC(=O)O", "note": "(configuration not stated)", "Potency": "inconclusive [inhibitor, single point]"}
{"smiles": "CC(=O)c1cccc(CN2CCCC(CCC(=O)NCc3ccc(F)c(F)c3)C2)c1", "note": "(configuration not stated)", "activity, negative = inhibition": "inactive: 0.468%"}
{"smiles": "CSc1ccccc1NC(=O)c1ccccc1N(Cc1ccccc1)S(C)(=O)=O", "Potency": "inconclusive [inhibitor, single point]"}
{"smiles": "O=C(CSc1nnc2ccccn12)Nc1ccccc1C(=O)O", "activity, negative = inhibition": "inactive: -3%"}
{"smiles": "CCOC(=O)c1cc2sccc2n1CC(=O)Nc1ccc(OC)c(OC)c1", "Potency": "inconclusive [inhibitor, single point]"}
{"smiles": "CCCCCC(=O)N/N=C/c1cc(Br)c(O)c(OC)c1", "Potency": "inconclusive [inhibitor, single point]"}
{"smiles": "c1ccc(CSc2nncn2-c2ccccn2)cc1", "activity, negative = inhibition": "inactive: -14.1%"}
{"smiles": "CSc1sc(C(=O)NN)c2c1C1(CCC2)SCCS1", "Potency": "active: 0.447 µM"}
{"smiles": "Cc1ccc(NC(=O)CCC(=O)NNC(=S)Nc2ccccc2)c(C)c1", "Potency": "active: 8.91 µM"}
{"smiles": "COc1c(Cl)cc(Cl)cc1/C=C/C(=O)c1ccc(NC(=O)c2cccs2)cc1", "Potency": "inconclusive [inhibitor, single point]"}
{"smiles": "c1ccc(-n2nnc3c(N4CCOCC4)ncnc32)cc1", "Potency": "inconclusive [inhibitor, single point]"}
{"smiles": "C/C(CCc1ccc2c(c1)OCO2)=N\\N=C1\\NC(=O)CC(C(=O)Nc2ccccc2F)S1", "note": "(configuration not stated)", "activity, negative = inhibition": "inactive: -0.239%"}
{"smiles": "CCn1c(CNC(=O)c2ccc(OC)c(OC)c2)nnc1SCC(=O)c1ccc(OC)cc1", "Potency": "inconclusive [inhibitor, single point]"}
{"smiles": "Cc1ccccc1Cn1nc(C)c(NC(=O)c2noc3c2CCCC3)c1C", "Potency": "inconclusive [inhibitor, single point]"}
{"smiles": "c1ccc(CSc2ncnc3sccc23)cc1", "Potency": "inconclusive [inhibitor, single point]"}
{"smiles": "O=C(/C=C/c1ccco1)Nc1nc(-c2ccccn2)cs1", "Potency": "inconclusive [inhibitor, single point]"}
{"smiles": "Cc1nc(-c2ccc(C(=O)N3CCCC3)cc2)cs1", "Potency": "active: 25.1 µM"}
{"smiles": "O=C(NC(c1ccccc1)c1ccccc1)c1cccc(S(=O)(=O)NCc2ccccc2)c1", "Potency": "active: 4.47 µM"}
{"smiles": "Cc1cccc(C)c1NC(=O)c1ccc([N+](=O)[O-])s1", "activity, negative = inhibition": "inactive: 10.8%"}
{"smiles": "COc1ccc(CNC(=O)C(c2ccco2)N(C(=O)c2ccccn2)c2ccccc2)cc1", "note": "(configuration not stated)", "Potency": "inconclusive [inhibitor, single point]"}
{"smiles": "COc1ccc(C(=O)Nc2ccc(CN3CCOCC3)cc2)cc1", "activity, negative = inhibition": "inactive: -8.55%"}
{"smiles": "COc1ccc(CCNC(=O)c2cnn3ccccc23)c(OC)c1OC", "Potency": "inconclusive [inhibitor, partial curve]"}
{"smiles": "Cc1cc(C)nc(SCC(=O)c2ccc([N+](=O)[O-])cc2)n1", "Potency": "inconclusive [inhibitor, single point]"}
{"smiles": "Cc1ccc(C2CC(c3ccc(F)cc3)Nc3nc(N)nn32)cc1", "note": "(configuration not stated)", "activity, negative = inhibition": "inactive: 2.74%"}
{"smiles": "O=C(NC(=S)Nc1ccc(CN2CCOCC2)cc1)c1ccccc1[N+](=O)[O-]", "Potency": "inconclusive [inhibitor, single point]"}
{"smiles": "COc1ccc(Br)cc1CN1CCN(C(=O)c2ccc(F)cc2)CC1", "Potency": "inconclusive [inhibitor, single point]"}
{"smiles": "COc1cc(OC)c2c(c1Cl)O[C@@]1(C2=O)[C@H](C)CC(=O)C[C@@H]1OC", "Potency": "inconclusive [inhibitor, single point]"}
